# Experimental data published in the supplement of paper PMC8728848.
# The other results are listed elsewhere or left out.
# B1: Epa23 (Candida glabrata) (protein)
# chain: MGSSHHHHHHSSGLVPRGSHMIPNPFEGTINNFPSGCSPNHGLYNRGLTMELYNYSYIHPQSIQSYFNTSTLKKMEKGQCWDPSYLDVNYPRTGYKTHNRFAKVNGIDGILDFEFNPTRSCVPSKGQLPQNYNYPLQFTLSNFTMLLYGYFKPKVTAKHTFTIFADDLLFLNFGAGNAFDCCQQQDTIDDFGNYQAYALWGSDTQQNTLTVNLDANIYYPIRMFYNNRDFKGALNMYFTTDESNTKINDFSGYLFNIPDSSEGCPAHISYETECGNVSG
# Legend:
# Assay in all cases: glycan array binding signal (z-score within array); higher = stronger binding
# Conditions in all cases: glycan notation: IUPAC condensed, linker removed
# Gal(a1-3)Gal(b1-4)GlcNAc = molecular target: Gal(a1-3)Gal(b1-4)GlcNAc
# Outline: (§1)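 Glycan array data came from 3228 arrays in the Consortium for Functional Glycomics database, and only arrays with an available protein sequence were kept. Glycan names were put into IUPAC-condensed notation, and columns mapping to the same glycan were averaged. The binding signal is a within-array Z-score, averaged across arrays of one protein sequence run at different concentrations or buffers and across linkers. A negative Z-score can be read as non-binding.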
# [1] = molecular target: Gal(a1-3)Gal(b1-4)GlcNAc(b1-2)Man
# Outline: as §1
# [2] = molecular target: Gal(a1-3)Gal(b1-4)GlcNAc(b1-2)Man(a1-3)[Gal(a1-3)Gal(b1-4)GlcNAc(b1-2)Man(a1-6)]Man(b1-4)GlcNAc(b1-4)GlcNAc
# Outline: as §1
# [3] = molecular target: Gal(a1-3)Gal(b1-4)GlcNAc(b1-3)GalNAc
# Outline: as §1
# [4] = molecular target: Gal(a1-3)Gal(b1-4)GlcNAc(b1-6)GalNAc
# Outline: as §1
# [5] = molecular target: Gal(a1-3)Gal(b1-4)[Fuc(a1-3)]GlcNAc
# Outline: as §1
# [6] = molecular target: Gal(a1-3)Gal(b1-4)[Fuc(a1-3)]GlcNAc(b1-2)Man(a1-3)[Gal(a1-3)Gal(b1-4)[Fuc(a1-3)]GlcNAc(b1-2)Man(a1-6)]Man(b1-4)GlcNAc(b1-4)GlcNAc
# Outline: as §1
# Gal(a1-3)GalNAc = molecular target: Gal(a1-3)GalNAc
# Outline: as §1
# [7] = molecular target: Gal(a1-3)[Gal(a1-4)]Gal(b1-4)GlcNAc
# Outline: as §1
# [8] = molecular target: Gal(a1-4)Gal(b1-3)GlcNAc(b1-2)Man(a1-3)[Gal(a1-4)Gal(b1-3)GlcNAc(b1-2)Man(a1-6)]Man(b1-4)GlcNAc(b1-4)GlcNAc
# Outline: as §1
# Gal(a1-4)Gal(b1-4)Glc = molecular target: Gal(a1-4)Gal(b1-4)Glc
# Outline: as §1
# Gal(a1-4)Gal(b1-4)GlcNAc = molecular target: Gal(a1-4)Gal(b1-4)GlcNAc
# Outline: as §1
# [9] = molecular target: Gal(a1-4)Gal(b1-4)GlcNAc(b1-2)Man(a1-3)[Gal(a1-4)Gal(b1-4)GlcNAc(b1-2)Man(a1-6)]Man(b1-4)GlcNAc(b1-4)GlcNAc
# Outline: as §1
# [10] = molecular target: Gal(a1-4)Gal(b1-4)GlcNAc(b1-3)Gal(b1-4)Glc
# Outline: as §1
# Gal(a1-4)GlcNAc = molecular target: Gal(a1-4)GlcNAc
# Outline: as §1
# Gal(a1-6)Glc = molecular target: Gal(a1-6)Glc
# Outline: as §1
# Gal(b1-2)Gal = molecular target: Gal(b1-2)Gal
# Outline: as §1
# Gal(b1-3)Gal = molecular target: Gal(b1-3)Gal
# Outline: as §1
# Gal(b1-3)Gal(b1-4)GlcNAc = molecular target: Gal(b1-3)Gal(b1-4)GlcNAc
# Outline: as §1
# Gal(b1-3)GalNAc = molecular target: Gal(b1-3)GalNAc
# Outline: as §1
# [11] = molecular target: Gal(b1-3)GalNAc(a1-3)[Fuc(a1-2)]Gal(b1-4)Glc
# Outline: as §1
# [12] = molecular target: Gal(b1-3)GalNAc(a1-3)[Fuc(a1-2)]Gal(b1-4)GlcNAc
# Outline: as §1
# Gal(b1-3)GalNAc(b1-3)Gal = molecular target: Gal(b1-3)GalNAc(b1-3)Gal
# Outline: as §1
# [13] = molecular target: Gal(b1-3)GalNAc(b1-3)Gal(a1-4)Gal(b1-4)Glc
# Outline: as §1
# [14] = molecular target: Gal(b1-3)GalNAc(b1-4)Gal(b1-4)Glc
# Outline: as §1
# [15] = molecular target: Gal(b1-3)GalNAc(b1-4)[Neu5Ac(a2-3)]Gal(b1-4)Glc
# Outline: as §1
# Gal(b1-3)GlcNAc = molecular target: Gal(b1-3)GlcNAc
# Outline: as §1
# [16] = molecular target: Gal(b1-3)GlcNAc(a1-3)Gal(b1-4)GlcNAc
# Outline: as §1
# [17] = molecular target: Gal(b1-3)GlcNAc(a1-6)Gal(b1-4)GlcNAc
# Outline: as §1
# Gal(b1-3)GlcNAc(b1-2)Man = molecular target: Gal(b1-3)GlcNAc(b1-2)Man
# Outline: as §1
# [18] = molecular target: Gal(b1-3)GlcNAc(b1-2)Man(a1-3)[Gal(b1-3)GlcNAc(b1-2)Man(a1-6)]Man(b1-4)GlcNAc(b1-4)GlcNAc
# Outline: as §1
# [19] = molecular target: Gal(b1-3)GlcNAc(b1-2)Man(a1-3)[Gal(b1-3)GlcNAc(b1-2)Man(a1-6)]Man(b1-4)GlcNAc(b1-4)[Fuc(a1-6)]GlcNAc
# Outline: as §1
# [20] = molecular target: Gal(b1-3)GlcNAc(b1-2)Man(a1-3)[GlcNAc(b1-4)][Gal(b1-3)GlcNAc(b1-2)Man(a1-6)]Man(b1-4)GlcNAc(b1-4)GlcNAc
# Outline: as §1
# [21] = molecular target: Gal(b1-3)GlcNAc(b1-2)[Gal(b1-3)GlcNAc(b1-6)]Man(a1-6)[Gal(b1-3)GlcNAc(b1-2)Man(a1-3)]Man(b1-4)GlcNAc(b1-4)GlcNAc
# Outline: as §1
# [22] = molecular target: Gal(b1-3)GlcNAc(b1-3)Gal(b1-3)GlcNAc
# Outline: as §1
# [23] = molecular target: Gal(b1-3)GlcNAc(b1-3)Gal(b1-4)Glc
# Outline: as §1
# [24] = molecular target: Gal(b1-3)GlcNAc(b1-3)Gal(b1-4)GlcNAc
# Outline: as §1
# [25] = molecular target: Gal(b1-3)GlcNAc(b1-3)Gal(b1-4)GlcNAc(b1-2)Man(a1-3)[Gal(b1-3)GlcNAc(b1-3)Gal(b1-4)GlcNAc(b1-2)Man(a1-6)]Man(b1-4)GlcNAc(b1-4)GlcNAc
# Outline: as §1
# [26] = molecular target: Gal(b1-3)GlcNAc(b1-3)Gal(b1-4)GlcNAc(b1-2)[Gal(b1-3)GlcNAc(b1-3)Gal(b1-4)GlcNAc(b1-6)]Man(a1-6)[Gal(b1-3)GlcNAc(b1-3)Gal(b1-4)GlcNAc(b1-2)Man(a1-3)]Man(b1-4)GlcNAc(b1-4)[Fuc(a1-6)]GlcNAc
# Outline: as §1
# [27] = molecular target: Gal(b1-3)GlcNAc(b1-3)Gal(b1-4)GlcNAc(b1-3)Gal(b1-4)GlcNAc(b1-2)[Gal(b1-3)GlcNAc(b1-3)Gal(b1-4)GlcNAc(b1-3)Gal(b1-4)GlcNAc(b1-6)]Man(a1-6)[Gal(b1-3)GlcNAc(b1-3)Gal(b1-4)GlcNAc(b1-3)Gal(b1-4)GlcNAc(b1-2)Man(a1-3)]Man(b1-4)GlcNAc(b1-4)[Fuc(a1-6)]GlcNAc
# Outline: as §1
# [28] = molecular target: Gal(b1-3)GlcNAc(b1-3)Gal(b1-4)GlcNAc(b1-6)[Gal(b1-3)GlcNAc(b1-3)]Gal(b1-4)Glc
# Outline: as §1
# [29] = molecular target: Gal(b1-3)GlcNAc(b1-3)Gal(b1-4)[Fuc(a1-3)]GlcNAc
# Outline: as §1
# [30] = molecular target: Gal(b1-3)GlcNAc(b1-3)Gal(b1-4)[Fuc(a1-3)]GlcNAc(b1-6)[Gal(b1-3)GlcNAc(b1-3)]Gal(b1-4)Glc
# Outline: as §1
# [31] = molecular target: Gal(b1-3)GlcNAc(b1-3)GalNAc
# Outline: as §1
# [32] = molecular target: Gal(b1-3)GlcNAc(b1-6)Gal(b1-4)GlcNAc
# Outline: as §1
binder,measurement,setting,value
B1,glycan array binding signal (z-score),Gal(a1-3)Gal(b1-4)GlcNAc,-0.008
same,glycan array binding signal (z-score),[1],-0.156
same,glycan array binding signal (z-score),[2],-0.03
same,glycan array binding signal (z-score),[3],-0.148
same,glycan array binding signal (z-score),[4],0.125
same,glycan array binding signal (z-score),[5],-0.178
same,glycan array binding signal (z-score),[6],-0.195
same,glycan array binding signal (z-score),Gal(a1-3)GalNAc,-0.118
same,glycan array binding signal (z-score),[7],-0.082
same,glycan array binding signal (z-score),[8],-0.081
same,glycan array binding signal (z-score),Gal(a1-4)Gal(b1-4)Glc,-0.12
same,glycan array binding signal (z-score),Gal(a1-4)Gal(b1-4)GlcNAc,-0.046
same,glycan array binding signal (z-score),[9],0.003
same,glycan array binding signal (z-score),[10],-0.139
same,glycan array binding signal (z-score),Gal(a1-4)GlcNAc,0.008
same,glycan array binding signal (z-score),Gal(a1-6)Glc,-0.007
same,glycan array binding signal (z-score),Gal(b1-2)Gal,-0.166
same,glycan array binding signal (z-score),Gal(b1-3)Gal,0.204
same,glycan array binding signal (z-score),Gal(b1-3)Gal(b1-4)GlcNAc,0.685
same,glycan array binding signal (z-score),Gal(b1-3)GalNAc,0.204
same,glycan array binding signal (z-score),[11],0.036
same,glycan array binding signal (z-score),[12],-0.036
same,glycan array binding signal (z-score),Gal(b1-3)GalNAc(b1-3)Gal,0.855
same,glycan array binding signal (z-score),[13],0.009
same,glycan array binding signal (z-score),[14],1.08
same,glycan array binding signal (z-score),[15],0.204
same,glycan array binding signal (z-score),Gal(b1-3)GlcNAc,-0.179
same,glycan array binding signal (z-score),[16],-0.167
same,glycan array binding signal (z-score),[17],-0.078
same,glycan array binding signal (z-score),Gal(b1-3)GlcNAc(b1-2)Man,-0.057
same,glycan array binding signal (z-score),[18],-0.062
same,glycan array binding signal (z-score),[19],-0.286
same,glycan array binding signal (z-score),[20],-0.162
same,glycan array binding signal (z-score),[21],-0.104
same,glycan array binding signal (z-score),[22],-0.183
same,glycan array binding signal (z-score),[23],-0.292
same,glycan array binding signal (z-score),[24],-0.194
same,glycan array binding signal (z-score),[25],-0.194
same,glycan array binding signal (z-score),[26],-0.076
same,glycan array binding signal (z-score),[27],-0.035
same,glycan array binding signal (z-score),[28],-0.065
same,glycan array binding signal (z-score),[29],-0.155
same,glycan array binding signal (z-score),[30],-0.13
same,glycan array binding signal (z-score),[31],-0.16
same,glycan array binding signal (z-score),[32],0.671
